Results on 15 sequences are retold here after the supplement of paper PMC7826260.

The list shows a part of the results. One pool of 16,384 single-stranded DNAs met each Rep nickase domain in vitro (1 h at 37 °C, 3 µM enzyme); the outer parts of the 90-letter strands are left off. Uncut reads are compared with the no-enzyme pool on a log2 scale; the lower, the more was cut; hits are not called. Because reads are shares of a total, they shift together; uncut strands gain when others are lost, and binding without cutting may add a little.

What all share (experiment): uncleaved DNA left, log2 of reads against the no-enzyme library (log2 ratio); higher = less cleavage (more negative = more Rep cleavage of the k-mer); sequences stand for … in CTCGTCCG…ACCGGAGA
Assay [1] deals with T1, Rep nickase domain of Muscovy duck circovirus.
T1 sequence (Rep 1-111, printed without the tag): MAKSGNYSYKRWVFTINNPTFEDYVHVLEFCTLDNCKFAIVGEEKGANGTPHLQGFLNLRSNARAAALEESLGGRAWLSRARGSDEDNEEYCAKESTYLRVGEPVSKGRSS
As for the experimental part:
(§1)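 A pool of 90-nt single-stranded DNAs with seven random bases just before the constant AC of the nick site (name = the seven bases) was cut by 3 µM recombinant His6-SUMO-tagged Rep nickase domain (300 nM DNA, 50 mM HEPES pH 8.0, 50 mM NaCl, 1 mM MnCl2, 1 h, 37 °C, three replicates). Uncut DNA was amplified and sequenced.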

In assay [2] the test system is T2, Rep nickase domain of banana bunchy top virus.
T2 sequence (Rep 1-94, printed without the tag): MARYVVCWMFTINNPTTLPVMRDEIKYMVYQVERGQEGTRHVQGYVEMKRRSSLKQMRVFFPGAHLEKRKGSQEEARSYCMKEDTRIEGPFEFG
As for the experimental part: as §1
In assay [3] the test system is T3, Rep nickase domain of cabbage leaf curl virus.
T3 sequence (Rep 1-116, printed without the tag): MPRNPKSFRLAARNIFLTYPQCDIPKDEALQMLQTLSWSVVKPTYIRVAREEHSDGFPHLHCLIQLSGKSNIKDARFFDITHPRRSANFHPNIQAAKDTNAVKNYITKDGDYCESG
As for the experimental part:
as §1

In assay [4] the test system is T4, Rep nickase domain of chickpea chlorotic dwarf virus.
T4 sequence (Rep 1-124, printed without the tag): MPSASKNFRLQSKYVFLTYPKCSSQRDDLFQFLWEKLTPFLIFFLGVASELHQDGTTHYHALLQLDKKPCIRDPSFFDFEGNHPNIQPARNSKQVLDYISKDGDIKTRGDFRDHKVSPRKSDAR
As for the experimental part:
as §1

The subject of assay [5] is T5, Rep nickase domain of faba bean necrotic yellows virus.
T5 sequence (Rep 1-98, printed without the tag): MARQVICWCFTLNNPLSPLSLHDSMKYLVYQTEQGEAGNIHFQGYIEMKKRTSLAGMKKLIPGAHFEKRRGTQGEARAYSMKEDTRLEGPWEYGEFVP
As for the experimental part: as §1
Assay [6] concerns T6, Rep nickase domain of maize striate mosaic virus.
T6 sequence (Rep 1-117, printed without the tag): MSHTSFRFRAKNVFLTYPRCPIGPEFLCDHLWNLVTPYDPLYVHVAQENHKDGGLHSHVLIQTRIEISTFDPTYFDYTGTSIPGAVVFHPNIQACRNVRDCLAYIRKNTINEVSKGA
As for the experimental part: as §1
Assay [7] deals with T7, Rep nickase domain of porcine circovirus 2.
T7 sequence (Rep 2-116, printed without the tag): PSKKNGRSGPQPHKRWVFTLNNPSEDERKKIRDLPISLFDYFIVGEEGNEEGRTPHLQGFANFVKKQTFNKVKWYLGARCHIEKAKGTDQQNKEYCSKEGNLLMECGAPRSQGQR
As for the experimental part:
as §1

The subject of assay [8] is T8, Rep nickase domain of tomato golden mosaic virus.
T8 sequence (Rep 1-124, printed without the tag): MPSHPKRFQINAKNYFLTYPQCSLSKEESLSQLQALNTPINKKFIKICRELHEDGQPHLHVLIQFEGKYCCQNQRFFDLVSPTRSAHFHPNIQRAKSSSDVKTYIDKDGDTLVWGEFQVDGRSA
As for the experimental part: as §1
Assay [9] deals with T9, Rep nickase domain of tomato yellow leaf curl virus.
T9 sequence (Rep 1-136, printed without the tag): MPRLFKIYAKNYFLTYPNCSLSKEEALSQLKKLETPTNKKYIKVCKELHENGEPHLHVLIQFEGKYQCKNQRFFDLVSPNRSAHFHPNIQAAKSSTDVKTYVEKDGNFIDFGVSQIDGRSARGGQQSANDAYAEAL
As for the experimental part: as §1
Assay [10] relates to T10, Rep nickase domain of wheat dwarf virus.
T10 sequence (Rep 1-137, printed without the tag): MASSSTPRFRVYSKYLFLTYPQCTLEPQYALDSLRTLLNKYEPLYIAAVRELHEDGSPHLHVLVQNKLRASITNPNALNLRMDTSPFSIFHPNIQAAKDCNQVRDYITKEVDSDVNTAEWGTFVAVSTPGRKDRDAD
As for the experimental part: as §1

CAATGTT: the “uncleaved DNA left (log2)” value in assay [1] was -3.9; in [2], -3.78; in assay [3], -4.92; in assay [4] it was -3.8; in [5], -2.5; in [6] it was -3.5. The “uncleaved DNA left (log2)” value in assay [7] is -4.39; in assay [8], -4.28; in assay [9], -3.59; in assay [10], -4.58.

Turning to GTCATGA, the “uncleaved DNA left (log2)” value was -0.0199 in [1]; -0.0203 in assay [2]; 0.228 in [3]; 0.757 in assay [4]; -0.0891 in [5]; 1.55 in assay [6]. In addition, the “uncleaved DNA left (log2)” value in assay [7] is 0.00643; in assay [8], 0.0233; in [9], -0.0469; in assay [10] it was 0.0789.

With CGCTGGC, the “uncleaved DNA left (log2)” value in assay [1] was -0.0908; in [2] it was -0.177; in assay [3], -0.169; in assay [4], 0.055; in assay [5] it was -0.0545; in [6], -0.27. The “uncleaved DNA left (log2)” value in [7] was -0.053; in assay [8], -0.152; in assay [9], -0.155; in [10], -0.0978.

As for GGCGGGC, the “uncleaved DNA left (log2)” value came out at 0.159 in assay [1]; 0.068 in assay [2]; 0.586 in assay [3]; 1.01 in assay [4]; 0.122 in assay [5]; 1.35 in assay [6]. In addition, the “uncleaved DNA left (log2)” value in [7] turned out to be 0.232; in assay [8] it was 0.0825; in assay [9], 0.0713; in assay [10], 0.0839.

Regarding GCCCTTT, the “uncleaved DNA left (log2)” value in [1] was -0.197; in assay [2] it was -0.0761; in [3], 0.00976; in [4], -0.738; in [5], -0.282; in assay [6], 0.24. The “uncleaved DNA left (log2)” value in assay [7] is -0.191; in assay [8] it was -0.174; in assay [9], -0.212; in [10] it was -0.0312.

On to CATAATA, for which the “uncleaved DNA left (log2)” value in assay [1] is -0.158; in assay [2], -0.142; in [3] it was -0.293; in assay [4], -2.77; in assay [5], -0.0608; in assay [6], -0.75. Moreover, the “uncleaved DNA left (log2)” value in assay [7] is -0.266; in assay [8], -0.00227; in [9] it was -0.191; in [10], -0.0382.

AGTCTCG: the “uncleaved DNA left (log2)” value was 0.072 in assay [1]; -0.0775 in [2]; -0.777 in assay [3]; -0.819 in [4]; 0.0484 in [5]; -0.905 in assay [6]. Moreover, the “uncleaved DNA left (log2)” value was 0.0882 in assay [7], 0.0155 in assay [8], 0.0045 in assay [9] and -0.027 in assay [10].

With TCGTTTA, the “uncleaved DNA left (log2)” value in assay [1] is 0.0579; in [2], 0.0309; in [3], 0.129; in assay [4], -1.01; in [5], 0.0124; in assay [6], -0.254. Besides, the “uncleaved DNA left (log2)” value was -0.57 in assay [7], 0.0271 in [8], 0.0265 in assay [9] and 0.043 in assay [10].

In the case of AGGCCAT, the “uncleaved DNA left (log2)” value in [1] is -0.00401; in assay [2], 0.0295; in [3], 0.63; in assay [4], 1.57; in [5] it was 0.0415; in [6] it was 1.95. The “uncleaved DNA left (log2)” value was found to be 0.116 in [7], 0.0225 in [8], 0.039 in assay [9] and 0.226 in assay [10].

Regarding AGCGTAA, the “uncleaved DNA left (log2)” value in [1] is -0.0228; in [2], 0.0925; in assay [3], -0.146; in [4], 0.266; in [5], 0.0058; in [6] it was 0.777. Also, the “uncleaved DNA left (log2)” value is -0.329 in assay [7], 0.0436 in assay [8], 0.0527 in [9] and 0.0244 in [10].

TTGACCA: the “uncleaved DNA left (log2)” value in assay [1] is 0.0195; in assay [2] it was 0.0689; in assay [3] it was 0.172; in [4] it was -0.000283; in assay [5], 0.025; in [6] it was 0.427. For the same sequence, the “uncleaved DNA left (log2)” value is -0.0674 in assay [7], 0.0674 in assay [8], 0.0806 in [9] and 0.0724 in assay [10].

Regarding CAGACCC, the “uncleaved DNA left (log2)” value in assay [1] was -0.137; in assay [2], -0.0152; in assay [3] it was 0.474; in [4], 1.26; in assay [5], 0.101; in [6], 1.85. Also, the “uncleaved DNA left (log2)” value in assay [7] was -0.0476; in assay [8], -0.0413; in assay [9], 0.072; in assay [10], 0.13.

For AGTGGTC, the “uncleaved DNA left (log2)” value in [1] was -0.018; in assay [2], 0.0138; in assay [3] it was 0.139; in assay [4] it was 0.403; in assay [5], -0.0328; in [6], 0.604. Also, the “uncleaved DNA left (log2)” value was -0.0231 in assay [7], -0.0276 in assay [8], -0.0871 in assay [9] and -0.0578 in [10].

With GATCAGA, the “uncleaved DNA left (log2)” value is 0.0925 in assay [1]; 0.017 in assay [2]; 0.166 in assay [3]; 0.475 in assay [4]; 0.0081 in assay [5]; 0.226 in [6]. Moreover, the “uncleaved DNA left (log2)” value in assay [7] was 0.029; in [8] it was 0.036; in [9], 0.0633; in assay [10], 0.145.

GTCTTTC: the “uncleaved DNA left (log2)” value in assay [1] was -0.0112; in [2] it was 0.0724; in assay [3], 0.337; in assay [4], 0.897; in [5], -0.111; in assay [6], 1.62. Besides, the “uncleaved DNA left (log2)” value in assay [7] was determined as 0.102; in assay [8], 0.0281; in [9] it was 0.0492; in [10], 0.0223.
